In publication PMC3846719:
Results are given in words; binding and its absence hold for the method and conditions named. For part of these data: In cells and extracts the contact can be indirect. Some results given as binding are weak or reduced against the parent protein; the word gives no strength. For part of these data: Where a sequence is shown, tags or fusion partners need not be part of it. Each block holds one molecule with its values, some of them ahead of it.

By UniProt entry, the sequences of proteins in these tests, tags left out. Where a name states a change or a piece, a line headed by the entry shows the natural chain unless it says otherwise.
UniProt P27801: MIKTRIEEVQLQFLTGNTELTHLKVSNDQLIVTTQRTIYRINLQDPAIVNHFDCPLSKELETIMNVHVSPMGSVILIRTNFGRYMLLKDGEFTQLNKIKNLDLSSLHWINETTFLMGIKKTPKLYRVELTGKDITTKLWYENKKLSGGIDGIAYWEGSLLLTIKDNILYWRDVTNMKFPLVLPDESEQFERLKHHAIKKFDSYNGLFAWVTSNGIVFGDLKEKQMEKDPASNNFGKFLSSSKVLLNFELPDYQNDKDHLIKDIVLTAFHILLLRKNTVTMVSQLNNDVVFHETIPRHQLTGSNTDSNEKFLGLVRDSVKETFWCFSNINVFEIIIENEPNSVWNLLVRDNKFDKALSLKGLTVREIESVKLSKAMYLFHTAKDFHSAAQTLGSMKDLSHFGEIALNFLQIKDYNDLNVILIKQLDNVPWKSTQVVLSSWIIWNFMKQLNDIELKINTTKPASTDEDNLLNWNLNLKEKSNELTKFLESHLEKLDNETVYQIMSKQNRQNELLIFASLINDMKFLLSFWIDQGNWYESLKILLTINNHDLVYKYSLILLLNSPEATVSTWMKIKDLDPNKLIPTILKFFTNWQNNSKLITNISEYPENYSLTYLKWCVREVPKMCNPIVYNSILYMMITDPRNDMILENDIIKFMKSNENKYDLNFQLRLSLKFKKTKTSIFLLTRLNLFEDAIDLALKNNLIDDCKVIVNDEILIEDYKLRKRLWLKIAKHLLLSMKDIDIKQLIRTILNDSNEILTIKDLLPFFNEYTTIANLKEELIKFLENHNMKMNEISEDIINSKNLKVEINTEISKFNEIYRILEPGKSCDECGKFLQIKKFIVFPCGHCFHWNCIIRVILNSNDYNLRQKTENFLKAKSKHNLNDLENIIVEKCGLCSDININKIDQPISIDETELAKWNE
UniProt P12868: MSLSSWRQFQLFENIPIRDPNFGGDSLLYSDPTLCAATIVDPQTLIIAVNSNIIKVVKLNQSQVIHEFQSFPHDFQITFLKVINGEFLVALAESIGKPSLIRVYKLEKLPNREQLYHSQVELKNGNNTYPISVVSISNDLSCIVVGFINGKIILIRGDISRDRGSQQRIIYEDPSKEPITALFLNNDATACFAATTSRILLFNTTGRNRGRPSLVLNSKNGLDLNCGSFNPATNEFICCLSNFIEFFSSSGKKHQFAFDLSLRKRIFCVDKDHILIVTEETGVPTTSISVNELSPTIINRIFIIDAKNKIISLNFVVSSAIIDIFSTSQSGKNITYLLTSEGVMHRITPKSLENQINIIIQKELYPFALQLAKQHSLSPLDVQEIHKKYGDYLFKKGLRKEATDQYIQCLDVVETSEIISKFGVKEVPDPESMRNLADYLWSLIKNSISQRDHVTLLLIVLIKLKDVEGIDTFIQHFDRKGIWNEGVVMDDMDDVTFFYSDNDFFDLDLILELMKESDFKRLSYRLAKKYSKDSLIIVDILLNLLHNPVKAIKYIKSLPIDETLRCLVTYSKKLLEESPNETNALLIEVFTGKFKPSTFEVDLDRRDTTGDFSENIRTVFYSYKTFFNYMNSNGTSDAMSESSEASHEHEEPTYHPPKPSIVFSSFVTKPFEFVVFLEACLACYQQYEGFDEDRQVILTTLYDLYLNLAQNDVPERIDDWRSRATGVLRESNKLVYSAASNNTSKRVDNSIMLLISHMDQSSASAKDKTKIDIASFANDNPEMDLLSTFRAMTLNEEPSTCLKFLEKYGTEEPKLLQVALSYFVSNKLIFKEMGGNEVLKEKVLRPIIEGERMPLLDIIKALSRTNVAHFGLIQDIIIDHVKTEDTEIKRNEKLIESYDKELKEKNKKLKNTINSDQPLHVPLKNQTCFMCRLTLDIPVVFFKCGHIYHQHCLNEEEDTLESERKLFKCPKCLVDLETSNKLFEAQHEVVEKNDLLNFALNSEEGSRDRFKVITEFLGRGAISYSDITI
UniProt Q03308: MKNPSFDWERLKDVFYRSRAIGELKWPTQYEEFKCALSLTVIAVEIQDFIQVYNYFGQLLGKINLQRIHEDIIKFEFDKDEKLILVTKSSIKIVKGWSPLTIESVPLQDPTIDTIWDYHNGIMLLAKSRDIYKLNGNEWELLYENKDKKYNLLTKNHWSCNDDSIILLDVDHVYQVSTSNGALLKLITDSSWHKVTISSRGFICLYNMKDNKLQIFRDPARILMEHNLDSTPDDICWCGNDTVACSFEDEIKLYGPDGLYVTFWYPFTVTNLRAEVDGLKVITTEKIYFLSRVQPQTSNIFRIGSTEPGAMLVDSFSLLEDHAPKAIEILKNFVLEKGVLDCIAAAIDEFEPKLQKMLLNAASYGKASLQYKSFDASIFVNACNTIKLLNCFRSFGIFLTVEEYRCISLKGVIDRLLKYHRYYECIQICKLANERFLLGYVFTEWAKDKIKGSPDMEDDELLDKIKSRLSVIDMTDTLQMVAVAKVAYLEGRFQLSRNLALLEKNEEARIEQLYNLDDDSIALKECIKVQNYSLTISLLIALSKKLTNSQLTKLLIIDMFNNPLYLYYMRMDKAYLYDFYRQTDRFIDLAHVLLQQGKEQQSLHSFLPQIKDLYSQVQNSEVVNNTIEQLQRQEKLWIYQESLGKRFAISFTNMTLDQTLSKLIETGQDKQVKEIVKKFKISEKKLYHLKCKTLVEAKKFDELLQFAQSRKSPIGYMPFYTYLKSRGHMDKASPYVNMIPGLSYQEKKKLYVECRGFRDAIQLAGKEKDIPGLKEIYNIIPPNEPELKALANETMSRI

Experiments:
Vps18 (S. cerevisiae) [1] = target: Vps18 (S. cerevisiae) (UniProt P27801); assay: pull-down; fragments of subunits from linear PCR templates co-translated in LTE with single EGFP-tagged bait subunits; precipitated on the anti-GFP matrix; SDS-PAGE, fluorescence scan
Vps3 (S. cerevisiae) = target: T1, Vps3 (S. cerevisiae) (UniProt P23643); assay: as above
T1 sequence (chain, BODIPY-labelled lysines (BODIPY-Lys-tRNA in the translation)): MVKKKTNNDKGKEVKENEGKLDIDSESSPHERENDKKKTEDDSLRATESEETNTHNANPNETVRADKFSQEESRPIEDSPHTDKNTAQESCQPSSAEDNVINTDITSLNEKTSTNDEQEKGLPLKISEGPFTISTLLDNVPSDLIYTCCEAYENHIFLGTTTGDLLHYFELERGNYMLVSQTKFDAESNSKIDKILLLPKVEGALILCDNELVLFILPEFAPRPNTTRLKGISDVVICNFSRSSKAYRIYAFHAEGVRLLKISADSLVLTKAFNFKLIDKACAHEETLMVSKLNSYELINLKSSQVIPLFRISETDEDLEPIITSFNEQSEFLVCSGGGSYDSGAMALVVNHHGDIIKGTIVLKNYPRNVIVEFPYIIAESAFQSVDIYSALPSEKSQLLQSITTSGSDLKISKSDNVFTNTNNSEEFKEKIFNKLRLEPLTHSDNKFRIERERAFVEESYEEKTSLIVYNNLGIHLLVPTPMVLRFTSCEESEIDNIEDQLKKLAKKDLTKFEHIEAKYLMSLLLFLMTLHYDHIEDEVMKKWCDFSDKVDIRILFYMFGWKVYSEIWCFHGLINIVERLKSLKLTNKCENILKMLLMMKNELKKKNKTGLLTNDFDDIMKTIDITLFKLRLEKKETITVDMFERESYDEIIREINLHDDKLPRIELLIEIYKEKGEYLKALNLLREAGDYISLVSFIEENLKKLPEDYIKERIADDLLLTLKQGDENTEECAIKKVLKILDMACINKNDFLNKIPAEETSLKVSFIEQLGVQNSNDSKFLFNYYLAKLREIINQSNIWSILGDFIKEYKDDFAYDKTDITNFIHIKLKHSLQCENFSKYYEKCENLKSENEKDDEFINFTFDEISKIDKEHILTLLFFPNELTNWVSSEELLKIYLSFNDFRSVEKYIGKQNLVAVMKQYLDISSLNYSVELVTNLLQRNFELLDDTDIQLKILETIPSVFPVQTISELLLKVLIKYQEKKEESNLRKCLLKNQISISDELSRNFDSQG

Vps39 (S. cerevisiae) = Vps39 (S. cerevisiae) (UniProt Q07468); assay: as above
Vps11 (S. cerevisiae) [2] = target: Vps11 (S. cerevisiae) (UniProt P12868); assay: pull-down; three or four subunits co-translated in LTE (20 nM plasmid mixture in all), one of them GFP-tagged; subcomplex isolated on the anti-GFP matrix; SDS-PAGE, fluorescence scan
Vps18 (S. cerevisiae) [3] = target: Vps18 (S. cerevisiae) (UniProt P27801); assay: as above
Vps11 (S. cerevisiae) [4] = target: Vps11 (S. cerevisiae) (UniProt P12868); assay: pull-down; one EGFP-tagged bait subunit and one untagged prey subunit co-translated (10 nM plasmids, 100 µl LTE, 27 °C, 2.5 h) with BODIPY-Lys-tRNA; GFP-Cap (anti-GFP) beads 15 min; washed with 50 mM NaHPO4 pH 8, 300 mM NaCl, 0.1% Triton; SDS-PAGE, fluorescence scan
Vps41 (S. cerevisiae) [5] = target: Vps41 (S. cerevisiae) (UniProt P38959); assay: pull-down; HOPS subunits expressed one by one in LTE and the lysates mixed; complex isolated by affinity purification; lower yield than co-expression
Vps41 (S. cerevisiae) [6] = target: Vps41 (S. cerevisiae) (UniProt P38959); assay: pull-down; all six HOPS subunits co-translated in LTE, Vps41 N-terminally tagged with GFP, Vps39 as 76-1049; isolated on the anti-GFP matrix; SDS-PAGE, fluorescence scan
[7] = target: T2, 6His-GFP-Vps41 (S. cerevisiae), P38959; assay: SEC; six HOPS subunits co-translated in 30 ml LTE; Ni-NTA HiTrap (eluted with 250 mM imidazole), then Superdex G200 10/300GL in 50 mM Tris-HCl pH 8, 200 mM NaCl, 1 mM TCEP; fractions with GFP fluorescence on SDS-PAGE (Coomassie); conditions: remark: other sources report otherwise
T2 chain: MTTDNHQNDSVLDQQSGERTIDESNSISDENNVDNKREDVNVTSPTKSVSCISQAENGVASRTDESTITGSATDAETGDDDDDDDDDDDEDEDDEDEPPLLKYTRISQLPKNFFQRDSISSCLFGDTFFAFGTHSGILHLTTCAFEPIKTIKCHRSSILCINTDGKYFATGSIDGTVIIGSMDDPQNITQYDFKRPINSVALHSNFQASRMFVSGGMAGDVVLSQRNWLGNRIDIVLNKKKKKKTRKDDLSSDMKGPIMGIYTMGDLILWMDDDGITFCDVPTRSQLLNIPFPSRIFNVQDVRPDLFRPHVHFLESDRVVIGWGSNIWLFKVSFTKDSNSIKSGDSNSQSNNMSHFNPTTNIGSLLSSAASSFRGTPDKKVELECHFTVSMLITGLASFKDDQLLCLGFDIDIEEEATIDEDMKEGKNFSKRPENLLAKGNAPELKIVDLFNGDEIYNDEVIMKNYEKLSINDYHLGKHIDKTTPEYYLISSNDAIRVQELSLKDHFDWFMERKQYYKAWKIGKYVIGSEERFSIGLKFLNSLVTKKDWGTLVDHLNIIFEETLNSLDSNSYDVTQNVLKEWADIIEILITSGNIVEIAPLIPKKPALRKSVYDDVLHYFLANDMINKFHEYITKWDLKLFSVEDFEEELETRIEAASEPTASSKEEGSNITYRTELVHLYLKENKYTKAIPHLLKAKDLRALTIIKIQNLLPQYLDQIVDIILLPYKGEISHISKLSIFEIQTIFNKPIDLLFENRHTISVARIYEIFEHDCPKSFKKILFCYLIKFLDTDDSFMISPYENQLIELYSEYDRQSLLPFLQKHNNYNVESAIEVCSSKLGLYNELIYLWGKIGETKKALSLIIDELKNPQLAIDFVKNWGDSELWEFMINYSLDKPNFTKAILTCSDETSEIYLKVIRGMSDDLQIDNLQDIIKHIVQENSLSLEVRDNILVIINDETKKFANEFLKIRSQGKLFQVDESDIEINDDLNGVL

Vps16 (S. cerevisiae) [8] = target: Vps16 (S. cerevisiae) (UniProt Q03308); assay: pull-down; three or four subunits co-translated in LTE (20 nM plasmid mixture in all), one of them GFP-tagged; subcomplex isolated on the anti-GFP matrix; SDS-PAGE, fluorescence scan
Vps16 (S. cerevisiae) [9] = target: Vps16 (S. cerevisiae) (UniProt Q03308); assay: pull-down; one EGFP-tagged bait subunit and one untagged prey subunit co-translated (10 nM plasmids, 100 µl LTE, 27 °C, 2.5 h) with BODIPY-Lys-tRNA; GFP-Cap (anti-GFP) beads 15 min; washed with 50 mM NaHPO4 pH 8, 300 mM NaCl, 0.1% Triton; SDS-PAGE, fluorescence scan

Molecule: Vps11(737-1029) (from UniProt P12868 737-1029) (domain or fragment)
binding (Vps18 (S. cerevisiae) [1]): binds
binding (Vps3 (S. cerevisiae)): binds
binding (Vps39 (S. cerevisiae)): binds

B2: Vps8 (protein, UniProt P39702 1-1274)
chain: MEQNGLDHDSRSSIDTTINDTQKTFLEFRSYTQLSEKLASSSSYTAPPLNEDGPKGVASAVSQGSESVVSWTTLTHVYSILGAYGGPTCLYPTATYFLMGTSKGCVLIFNYNEHLQTILVPTLSEDPSIHSIRSPVKSIVICSDGTHVAASYETGNICIWNLNVGYRVKPTSEPTNGMTPTPALPAVLHIDDHVNKEITGLDFFGARHTALIVSDRTGKVSLYNGYRRGFWQLVYNSKKILDVNSSKEKLIRSKLSPLISREKISTNLLSVLTTTHFALILLSPHVSLMFQETVEPSVQNSLVVNSSISWTQNCSRVAYSVNNKISVISISSSDFNVQSASHSPEFAESILSIQWIDQLLLGVLTISHQFLVLHPQHDFKILLRLDFLIHDLMIPPNKYFVISRRSFYLLTNYSFKIGKFVSWSDITLRHILKGDYLGALEFIESLLQPYCPLANLLKLDNNTEERTKQLMEPFYNLSLAALRFLIKKDNADYNRVYQLLMVVVRVLQQSSKKLDSIPSLDVFLEQGLEFFELKDNAVYFEVVANIVAQGSVTSISPVLFRSIIDYYAKEENLKVIEDLIIMLNPTTLDVDLAVKLCQKYNLFDLLIYIWNKIFDDYQTPVVDLIYRISNQSEKCVIFNGPQVPPETTIFDYVTYILTGRQYPQNLSISPSDKCSKIQRELSAFIFSGFSIKWPSNSNHKLYICENPEEEPAFPYFHLLLKSNPSRFLAMLNEVFEASLFNDDNDMVASVGEAELVSRQYVIDLLLDAMKDTGNSDNIRVLVAIFIATSISKYPQFIKVSNQALDCVVNTICSSRVQGIYEISQIALESLLPYYHSRTTENFILELKEKNFNKVLFHIYKSENKYASALSLILETKDIEKEYNTDIVSITDYILKKCPPGSLECGKVTEVIETNFDLLLSRIGIEKCVTIFSDFDYNLHQEILEVKNEETQQKYLDKLFSTPNINNKVDKRLRNLHIELNCKYKSKREMILWLNGTVLSNAESLQILDLLNQDSNFEAAAIIHERLESFNLAVRDLLSFIEQCLNEGKTNISTLLESLRRAFDDCNSAGTEKKSCWILLITFLITLYGKYPSHDERKDLCNKLLQEAFLGLVRSKSSSQKDSGGEFWEIMSSVLEHQDVILMKVQDLKQLLLNVFNTYKLERSLSELIQKIIEDSSQDLVQQYRKFLSEGWSIHTDDCEICGKKIWGAGLDPLLFLAWENVQRHQDMISVDLKTPLVIFKCHHGFHQTCLENLAQKPDEYSCLICQTESNPKIV
modifications: BODIPY-labelled lysines (BODIPY-Lys-tRNA in the translation)
binding (Vps16 (S. cerevisiae) [8]): binds
binding (Vps11 (S. cerevisiae) [4]): binds
binding (Vps16 (S. cerevisiae) [9]): binds

Further lines, results first:

binding (Vps11 (S. cerevisiae) [2]): binds
binding (Vps18 (S. cerevisiae) [3]): binds
binding (Vps11 (S. cerevisiae) [4]): binds
Molecule: Vps16 (from UniProt Q03308 1-798)

binding (Vps41 (S. cerevisiae) [5]): binds
binding (Vps41 (S. cerevisiae) [6]): binds
Molecule: truncated version of Vps39 (76-1049AA) (from UniProt Q07468 76-1049) (domain or fragment)

binding [7]: binds
B1: Vps39, Q07468 1-1049 (protein)
chain: MLRAQKLHSLKSSDITAILPTEQSQKLVLAKKNGDVEVYSRDGNTLKLFQVYPDLLQNAKNDPLPPVIENFYFANELSTIFAQCKETLILLSTTNLHEYDRIIDRRGINHCWLFERSHKNKEEKNTYLIYSTINTAKMRVLIWEGRTYKNMMEASLSYRKETIRSIYPGETGITLATDLGIYHWPYNKPSLIRIEKTVKNKFPKDMISALTELKEQAEKVIEKKPKKNSHFDAQSFSSMDRMSRKSSMSSLWYRTIRNERGNKIRYTFELDGNDATPMIIDGATKKIFKVELMHNNEEPFLIATDHATFSESNSEFDHMQYLSSNLLMLYNSSTIKFVDYENGFTFLQQKIPEGIKWVKNLSGTYFLVWTSNDEVQLFSYHVDDGSEDDDQESICGDINDPDFYQLWRKVLFYKFFIDSPHSKELCVSDNPEESLDICAMKLRDLTVMWCLRIFDKFQNYMVQLERSRNSRMIRSKCEEMIIKSIFDLFIKFWAPPQLVILKVFPSAISSLVLEITGQEHHCLLKEAEEVKETYDIPPHLLNRWCLPYLTDTRRHLQNLLSKENDDESRITWCYRDREIKQSFDFFLISNHDDVDLNTMLTLIDTVLFKCYLYYNPPMVGPFIRVENHCDSHVIVTELKIRHMFKDLIDFYYKRGNHEEALKFLTDLVDELENDNTDQKQRQKIDHGVKILVIYYLKKLSNPQLDVIFTYTDWLLNRHNDSIKEILSSIFFYDSQACSSRDHLKVYGYIKKFDKLLAIQYLEFAISTFRLEGNKLHTVLIKLYLENLDIPSTRIKLKSLLETTSVYEPRTILKLLNDAIESGSDQLPTNQLNFVKYLKIFPLSKLENHKEAVHILLDEIDDYKAATSYCNDVYQSDSTKGEELLLYLYSKLVSIYDSNRNSKLILNFLQDHGSKLNSAEIYKNLPQDISLYDIGRVVSQLLKKHTSKMDETRLEKALLQVELVATTYKLNERMSSYGVLSDSHKCPICKKVISNFGTDSISWFTREGRNIITHYNCGKVLQERFNAKNEKSSRIKQKTLGEVINELNNK
modifications: here or on the partner: BODIPY-labelled lysines (BODIPY-Lys-tRNA in the translation)
